Laboratory results reported in patent publication US7951577B2, “Liquid crystals with reduced toxicity and applications thereof” (Wisconsin Alumni Research Foundation, priority 2003, dated 2011).

How the values were obtained:
3T3 fibroblasts [1] = details: 3T3 fibroblast, 4 hours under liquid crystal
Method: Various nematic liquid crystals were screened to investigate their toxicity with respect to animal cells. Calcein AM (Molecular Probes), an intracellular esterase cleavage substrate that increases fluorescence with cleavage, was used to report cell viability using 3T3 fibroblast and SV-40 transformed human corneal epithelial (HCEC) cells which were exposed to varying concentrations of the liquid crystal. After incubation, the liquid crystal was removed, the cells were rinsed, and Calcein AM was added in PBS. The amount of fluorescence, proportional to the number of viable cells, was determined using an automated fluorescence plate reader (Cytofluor 4000). Ethidium homodimer was also used to enumerate dead cells.
Cells were plated at a concentration of 10,000 cells/well on a 96-well plate and allowed to attach and proliferate overnight. Media was removed, and various liquid crystals and PBS were added (25 μL/well). PBS was used as a control. […] 50 μL of Calcein-AM (0.6 μM) was added to each well, and the plate was incubated for an additional 2 hours to allow for an increase in fluorescence. Fluorescence was measured at 485 nm using 530 nm excitation from a Cytofluor 4000 TC automated plate reader.
To quantify the viability of cells treated with liquid crystals, viability/cytotoxicity assays were conducted. […]

3T3 fibroblasts [2] = details: liquid crystal layer about 1 mm, 4 to 8 hours

CCCCCc1ccc(-c2ccc(C#N)cc2)cc1 [5CB, 4-cyano-4′-pentylbiphenyl]
toxicity to cells (in words) (3T3 fibroblasts [1]): toxic | morphology/spreading of plated cells immersed under liquid crystal (3T3 fibroblasts [2]): bulge up or “round up”
